Hit rate of the full screen: of about 220,000 compounds, about 16,000 (7.3%) were called active. The inconclusive results got no clear call from the source; some entries with a clear call stand among them for comparison. Calls follow the shape of the dose curve; as a rule, active = well fitted inhibition curve with a large enough effect (not every such curve was filed as active); inconclusive = small, poorly fitted or top-dose-only effect, or another doubt; inactive = no such curve, though single readings can be large or run the other way. A potency beside an inconclusive call is a rough fit, not a confirmed value.
These molecules were tested against Aldehyde dehydrogenase 1A1 (Homo sapiens) (UniProt P00352) (assay: qHTS Assay for Inhibitors of Aldehyde Dehydrogenase 1 (ALDH1A1)). Details: Purified ALDH1A1, NADH fluorescence, propionaldehyde substrate; series mostly up to 75.3 µM; activity, negative = inhibition: at the top concentration.
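For activity, negative = inhibition in this document: plate controls were no enzyme wells and a reference inhibitor.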
Potency is read from the fitted curve at half-maximal effect; tags tell the direction and shape of the fitted curve.

Chain of UniProt P00352 (P00352 whole entry, looked up): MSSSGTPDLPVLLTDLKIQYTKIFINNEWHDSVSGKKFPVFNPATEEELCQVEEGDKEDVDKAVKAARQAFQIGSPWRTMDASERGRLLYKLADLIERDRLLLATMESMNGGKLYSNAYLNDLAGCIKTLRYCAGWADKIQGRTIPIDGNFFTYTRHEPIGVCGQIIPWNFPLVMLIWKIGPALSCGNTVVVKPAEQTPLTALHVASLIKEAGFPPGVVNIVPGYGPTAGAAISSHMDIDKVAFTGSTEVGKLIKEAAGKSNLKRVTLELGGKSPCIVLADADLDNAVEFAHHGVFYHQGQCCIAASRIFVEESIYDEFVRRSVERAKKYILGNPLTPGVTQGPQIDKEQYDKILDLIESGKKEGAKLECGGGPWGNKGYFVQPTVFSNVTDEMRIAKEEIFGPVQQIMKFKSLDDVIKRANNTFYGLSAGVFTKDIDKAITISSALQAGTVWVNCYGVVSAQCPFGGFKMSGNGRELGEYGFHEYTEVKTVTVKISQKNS

Potency, inconclusive:
FC(F)(F)c1cc(-c2cccs2)nc2nc(N3CCOCC3)sc12 28.2 µM [inhibitor, partial curve]
Cc1ccc(C)c(Cc2c(C)nc3c(C(=O)N4CCOCC4)cnn3c2C)c1 28.2 µM [inhibitor, partial curve]
CCN(C(=O)CSc1ncccc1C(=O)O)C1CCCCC1 0.1 µM [inhibitor, full curve, poor fit]
CCOc1ccc2nc3cc(N)ccc3c(N)c2c1 14.1 µM [inhibitor, partial curve]
NS(=O)(=O)c1ccc(CCNC(=S)Nc2ccccc2)cc1 35.5 µM [inhibitor, single point]
O=S1(=O)N=C(N(Cc2cccs2)c2ccc(O)cc2)c2ccccc21 15.8 µM [inhibitor, partial curve]
COc1ccc2[nH]cc(C(=O)CN3CCN(C/C=C/c4ccccc4)CC3)c2c1 17.8 µM [inhibitor, partial curve]
CCCCCCN(C(=O)CCCCCN1C(=O)NC(c2ccc(-c3ccccc3)cc2)C(C(=O)OCc2ccccc2)=C1C)C(C(=O)NCCCC)c1ccccn1 (centres undefined) 22.4 µM [inhibitor, single point]
O=C(NNc1cccc(Cl)n1)Nc1cccc(Cl)c1 39.8 µM [inhibitor, single point]
Cc1ccc(S(=O)(=O)N2CCN(c3nc(C(C)C)c4c(c3C#N)CC(C)(C)OC4)CC2)cc1 20 µM [inhibitor, partial curve]
CC(C)N1CCN(Cc2cccc(-c3ccco3)c2)CC1CCO (centres undefined) 39.8 µM [inhibitor, single point]
Cc1ccc(CCNC(=O)C2CCCN(S(=O)(=O)c3c(C)noc3/C=C/N(C)C)C2)cc1 (centres undefined) 28.2 µM [inhibitor, single point]

Potency, active:
Cc1c(-c2ccccc2)sc(N)c1C(=O)N1CCOCC1 12.6 µM
COc1cc(/C=N/NC(=O)c2ccccc2)ccc1OS(=O)(=O)c1ccccc1 14.1 µM
Cn1cnnc1SCC(=O)Nc1ccc2nc(SCc3ccccc3)sc2c1 3.55 µM

activity, negative = inhibition, inactive:
CC(=O)N1CCc2cc(NS(=O)(=O)c3cccs3)ccc21 -5.43%
CCOc1ccccc1NC(C)C(=O)Nc1cc(C(F)(F)F)ccc1N1CCOCC1 (centres undefined) -0.0955%
Cn1c(-c2ccccc2)c(/C=N/NC(=O)c2cccnc2)c2ccccc21 -4.76%
CCOC(=O)C1CCCN(C(=O)c2cc3cc(Br)ccc3oc2=O)C1 (centres undefined) -6.49%

From PubChem BioAssay AID1030 (National Center for Advancing Translational Sciences (NCATS), 2008)
